Assay results: patent US9822115B2, “Nitrogen containing compounds and their use as antibacterial agents” (WOCKHARDT LIMITED, priority 2014, dated 2017)
Structures can show the parent of a compound that is named as a salt. At least one structure is not confirmed: it was looked up by name or label, or the drawing left a doubt.

The compounds below were run on T1, Class C beta-lactamase, E. coli M50 (CMY/DHA). Settings: read-out: Beta-lactamase enzyme inhibition IC50.
T1 construct: no borders, tags or purification printed
Assay type: biochemical
Method: Determination of enzyme inhibition activity: Concentration of the inhibitor required to inhibit 50% of enzymatic activity was measured by adding a chromogenic substrate, Nitrocefin (100 uM, 5 min) to the preincubated mixture of crude enzyme and the agents (37° C., 10 min). Absorbance was measured at 485 nm by UV-spectrophotometer. The IC50 was calculated by plotting absorbance against concentration through Sigmoidal dose response curve using Graph Pad software.
The enzyme inhibition was expressed as IC50.

| SMILES | IC50 |
| --- | --- |
| O=C(Cc1ccccc1)NNC(=O)[C@@H]1CC[C@@H]2CN1C(=O)N2OS(=O)(=O)O [Example 4] | 0.009 µM |
| O=C(CCc1ccccc1)NNC(=O)[C@@H]1CC[C@@H]2CN1C(=O)N2OS(=O)(=O)O [Example 5] | 0.03 µM |
| O=C(CCCc1ccccc1)NNC(=O)[C@@H]1CC[C@@H]2CN1C(=O)N2OS(=O)(=O)O [Example 6, sodium salt of (2S,5R)-sulfuric acid mono-[2-(N′-(4-phenyl-butanoyl)-hydrazinocarbonyl)-7-oxo-1,6-diaza-bicylo[3.2.1]oct-6-yl]ester] | 0.009 µM |
| O=C(Cc1ccccn1)NNC(=O)[C@@H]1CC[C@@H]2CN1C(=O)N2OS(=O)(=O)O [Example 8, Sodium salt of (2S,5R)-Sulfuric acid mono-[2-(N′-(pyridine-2-yl-acetyl)-hydrazinocarbonyl)-7-oxo-1,6-diaza-bicyclo[3.2.1]oct-6-yl] ester] | 0.012 µM |
| O=C(Cc1ccc(Cl)cc1)NNC(=O)[C@@H]1CC[C@@H]2CN1C(=O)N2OS(=O)(=O)O [Example 9, sodium salt of (2S,5R)-sulfuric acid mono-[2-(N′-(4-chlorophenyl-acetyl)-hydrazinocarbonyl)-7-oxo-1,6-diaza-bicyclo[3.2.1]oct-6-yl]ester] | 0.011 µM |
| N#Cc1ccc(CC(=O)NNC(=O)[C@@H]2CC[C@@H]3CN2C(=O)N3OS(=O)(=O)O)cc1 [Example 10, sodium salt of (2S,5R)-sulfuric acid mono-[2-(N′-(4-cyanophenyl-acetyl)-hydrazinocarbonyl)-7-oxo-1,6-diaza-bicyclo[3.2.1]oct-6-yl]ester] | 0.028 µM |
| CN(C)c1ccc(CC(=O)NNC(=O)[C@@H]2CC[C@@H]3CN2C(=O)N3OS(=O)(=O)O)cc1 [Example 13, sodium salt of (2S,5R)-sulfuric acid mono-[2-(N′-(4-N,N-dimethylaminophenyl-acetyl)-hydrazinocarbonyl)-7-oxo-1,6-diaza-bicyclo[3.2.1]oct-6-yl]ester] | 0.017 µM |
| COc1ccc(CC(=O)NNC(=O)[C@@H]2CC[C@@H]3CN2C(=O)N3OS(=O)(=O)O)cc1 [Example 14, sodium salt of (2S,5R)-sulfuric acid mono-[2-(N′-(4-methoxyphenyl-acetyl)-hydrazinocarbonyl)-7-oxo-1,6-diaza-bicyclo[3.2.1]oct-6-yl]ester] | 0.013 µM |
| CCOc1ccccc1CC(=O)NNC(=O)[C@@H]1CC[C@@H]2CN1C(=O)N2OS(=O)(=O)O [Example 15, sodium salt of (2S,5R)-sulfuric acid mono-[2-(N′-(2-ethoxyphenyl-acetyl)-hydrazinocarbonyl)-7-oxo-1,6-diaza-bicyclo[3.2.1]oct-6-yl]ester] | 0.007 µM |
| O=C(Cc1ccc(O)cc1F)NNC(=O)[C@@H]1CC[C@@H]2CN1C(=O)N2OS(=O)(=O)O [Example 18, sodium salt of (2S,5R)-sulfuric acid mono-[2-(N′-(2-fluoro-4-hydroxyphenyl-acetyl)-hydrazinocarbonyl)-7-oxo-1,6-diaza-bicyclo[3.2.1]oct-6-yl]ester] | 0.012 µM |
| O=C(Cc1ccccc1O)NNC(=O)[C@@H]1CC[C@@H]2CN1C(=O)N2OS(=O)(=O)O [Example 19, sodium salt of (2S,5R)-sulfuric acid mono-[2-(N′-(2-hydroxyphenyl-acetyl)-hydrazinocarbonyl)-7-oxo-1,6-diaza-bicyclo[3.2.1]oct-6-yl]ester] | 0.013 µM |
| O=C(Cc1cccc(O)c1)NNC(=O)[C@@H]1CC[C@@H]2CN1C(=O)N2OS(=O)(=O)O [Example 20, sodium salt of (2S,5R)-sulfuric acid mono-[2-(N′-(3-hydroxyphenyl-acetyl)-hydrazinocarbonyl)-7-oxo-1,6-diaza-bicyclo[3.2.1]oct-6-yl]ester] | 0.011 µM |
| CC(C)(C)C(=O)Oc1ccc(CC(=O)NNC(=O)[C@@H]2CC[C@@H]3CN2C(=O)N3OS(=O)(=O)O)cc1 [Example 22, sodium salt of 2,2-dimethyl-propionic acid 4-{2-oxo-2-[N′-((2S,5R)-7-oxo-6-sulphooxy-1,6-diaza-bicyclo[3.2.1]octane-2-carbonyl)-hydrazino]ethyl}-phenyl ester] | 0.021 µM |
| CC(C)(C)OC(=O)CC(=O)Oc1ccc(CC(=O)NNC(=O)[C@@H]2CC[C@@H]3CN2C(=O)N3OS(=O)(=O)O)cc1 [Example 26, sodium salt of (2S,5R)-malonic acid tert-butyl ester 4-{2-oxo-2-[N′-(7-oxo-6-sulphooxy-1,6-diaza-bicyclo[3.2.1]octane-2-carbonyl)-hydrazino]ethyl}-phenyl ester] | 0.01 µM |
| O=C(Cc1ccc(OC(=O)NC2CCCCC2)cc1)NNC(=O)[C@@H]1CC[C@@H]2CN1C(=O)N2OS(=O)(=O)O [Example 28, sodium salt of (2S,5R)-cyclohexyl-carbamic acid 4-{2-oxo-2-[N′-(7-oxo-6-sulphooxy-1,6-diaza-bicyclo[3.2.1]octane-2-carbonyl)-hydrazino]ethyl}-phenyl ester] | 0.014 µM |
| CC(C)[C@H](NC(=O)Oc1ccc(CC(=O)NNC(=O)[C@@H]2CC[C@@H]3CN2C(=O)N3OS(=O)(=O)O)cc1)C(=O)OC(C)(C)C [Example 29, sodium salt of (S)-3-methyl-2-(4-{2-oxo-2-[N′-((2S,5R)-7-oxo-6-sulphooxy-1,6-diaza-bicyclo[3.2.1]-octane-2-carbonyl)-hydrazino]-ethyl}-phenoxycarbonylamino)-butyric acid tert-butyl ester] | 0.085 µM |
| CNCCOc1ccccc1CC(=O)NNC(=O)[C@@H]1CC[C@@H]2CN1C(=O)N2OS(=O)(=O)O [Example 36, (2S,5R)-sulfuric acid mono-[2-(N′-{2-[2-(2-N-methylamino-ethoxy)-phenyl]-acetyl}-hydrazinocarbonyl)-7-oxo-1,6-diaza-bicyclo[3.2.1]oct-6-yl]ester] | 0.07 µM |
| CNCCOc1cccc(CC(=O)NNC(=O)[C@@H]2CC[C@@H]3CN2C(=O)N3OS(=O)(=O)O)c1 [Example 37, (2S,5R)-sulfuric acid mono-[2-(N′-{2-[3-(2-N-methylamino-ethoxy)-phenyl]-acetyl}-hydrazinocarbonyl)-7-oxo-1,6-diaza-bicyclo[3.2.1]oct-6-yl]ester] | 0.017 µM |
| O=C(Cc1ccc(O[C@H]2CCNC2)cc1)NNC(=O)[C@@H]1CC[C@@H]2CN1C(=O)N2OS(=O)(=O)O [Example 64] | 0.028 µM |
